{
  "source": "PubChem BioAssay AID485360",
  "about": "(National Center for Advancing Translational Sciences (NCATS), 2010)",
  "note": "In all, about 230,000 compounds went through this assay and about 1,500 (0.65%) were called active. The inconclusive results got no clear call from the source; some entries with a clear call stand among them for comparison. Calls come from the whole dose curve; as a rule, active = well fitted inhibition curve with a large enough effect; inconclusive = small, poorly fitted or top-dose-only effect; inactive = no such curve, though single readings can be large or run the other way. Where the call is inconclusive, the potency comes from a doubtful curve fit. Potency is the fitted concentration of half-maximal effect; tags give direction and shape of the fitted curve.",
  "data": [
    {"molecular_target": "Lethal(3)malignant brain tumor-like protein 1 (Homo sapiens) (UniProt Q9Y468)", "sequence (Q9Y468 whole entry, looked up)": "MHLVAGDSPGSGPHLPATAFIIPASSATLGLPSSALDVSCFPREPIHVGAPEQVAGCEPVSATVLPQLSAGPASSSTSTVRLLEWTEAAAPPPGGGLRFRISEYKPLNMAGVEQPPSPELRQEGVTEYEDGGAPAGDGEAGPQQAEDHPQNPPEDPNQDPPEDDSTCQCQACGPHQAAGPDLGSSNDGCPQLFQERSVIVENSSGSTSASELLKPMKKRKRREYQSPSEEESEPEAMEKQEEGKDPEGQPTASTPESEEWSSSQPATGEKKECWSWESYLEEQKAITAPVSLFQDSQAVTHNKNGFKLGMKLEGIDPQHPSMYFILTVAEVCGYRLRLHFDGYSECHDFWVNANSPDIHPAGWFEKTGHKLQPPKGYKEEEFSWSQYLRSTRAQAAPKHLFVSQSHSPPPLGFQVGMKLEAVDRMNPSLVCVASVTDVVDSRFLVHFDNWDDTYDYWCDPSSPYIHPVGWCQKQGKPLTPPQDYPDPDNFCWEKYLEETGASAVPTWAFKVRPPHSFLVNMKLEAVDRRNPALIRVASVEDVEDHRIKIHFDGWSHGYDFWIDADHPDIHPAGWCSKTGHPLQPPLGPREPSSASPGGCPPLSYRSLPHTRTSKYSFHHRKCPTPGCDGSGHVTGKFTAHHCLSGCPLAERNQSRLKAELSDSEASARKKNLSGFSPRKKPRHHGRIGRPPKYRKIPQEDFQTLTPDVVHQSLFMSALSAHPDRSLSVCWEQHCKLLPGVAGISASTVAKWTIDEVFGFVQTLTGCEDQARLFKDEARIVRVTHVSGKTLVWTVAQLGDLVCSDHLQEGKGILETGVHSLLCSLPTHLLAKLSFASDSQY", "test": "qHTS Assay for the Inhibitors of L3MBTL1; note: nearly all actives have a fitted effect of over 60% in size", "details": "AlphaScreen L3MBTL1–H3K9me1 peptide binding; series mostly up to 57.1 µM", "procedure,_shortened": "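Read-out is AlphaScreen signal from streptavidin donor and nickel chelate acceptor beads (10 ug/mL final each) bridging L3MBTL1 (50 nM) and biotinylated K9-monomethylated H3(1-15) peptide (75 nM), after 30 min compound exposure at room temperature.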", "values": [
      {"smiles": "S=C(NCc1ccco1)Nc1ccc(N2CCOCC2)cc1", "Potency": "inactive"},
      {"smiles": "CCOc1ccccc1OCCOCCN1CC(C)OC(C)C1", "note": "(configuration not stated)", "Potency": "inactive"},
      {"smiles": "Cc1cc(C)c2nc(NNC(=O)c3ccc(S(=O)(=O)N4CCCC(C)C4)cc3)sc2c1", "note": "(configuration not stated)", "Potency": "inconclusive: 22.4 µM [inhibitor, partial curve]"},
      {"smiles": "CCOc1ccc(NC(C(=O)Nc2cccc(C(C)=O)c2)c2ccccc2)cc1", "note": "(configuration not stated)", "Potency": "inconclusive: 39.8 µM [inhibitor, single point]"},
      {"smiles": "CC(C)NC(=O)c1cccc(NC(=O)CC2SC(N3CCCCC3)=NC2=O)c1", "note": "(configuration not stated)", "Potency": "inconclusive: 6.31 µM [inhibitor, single point]"},
      {"smiles": "COc1ccc(-c2csc(NC(=O)CSc3n[nH]c(N)n3)n2)cc1", "Potency": "inconclusive: 2.82 µM [inhibitor, partial curve]"},
      {"smiles": "Cc1ccc(S(=O)(=O)N(CC(=O)NCc2ccc(F)cc2)C(=O)N2CCN(C)CC2)cc1", "Potency": "inconclusive: 0.708 µM [inhibitor, single point]"},
      {"smiles": "CCc1cc2c(Nc3ccc(O)cc3)nc(C)nc2s1", "Potency": "inconclusive: 39.8 µM [inhibitor, single point]"},
      {"smiles": "Cc1ccc(NN2C(=O)C=CC2=O)cc1", "Potency": "inactive"},
      {"smiles": "CC(COc1cccc2ccccc12)CN1CCN(C)CC1", "note": "(configuration not stated)", "Potency": "inconclusive: 6.31 µM [inhibitor, single point]"},
      {"smiles": "CC1=C(C(=O)O)N2C(=O)C(NC(=O)c3nn(C)cc3[N+](=O)[O-])C2SC1", "note": "(configuration not stated)", "Potency": "inactive"},
      {"smiles": "O=[N+]([O-])c1ccc(CN2CCCCCC2)s1", "Potency": "inconclusive: 35.5 µM [inhibitor, single point]"},
      {"smiles": "COc1cccc(OC)c1C(=O)NC(=S)Nc1ccc2c(c1)OCCO2", "Potency": "inactive"},
      {"smiles": "CCN(c1ccc(NC(=O)COC(=O)c2ccc3ccccc3n2)cc1)C(C)C", "Potency": "inconclusive: 39.8 µM [inhibitor, single point]"},
      {"smiles": "Cc1nc2ccccn2c1C(=O)NNS(=O)(=O)c1ccc(Cl)cc1", "Potency": "inconclusive: 6.31 µM [inhibitor, single point]"},
      {"smiles": "CCOC(=O)Nc1ccc2c(CN3C(=O)NC4(CCCC4)C3=O)cc(=O)oc2c1", "Potency": "inconclusive: 39.8 µM [inhibitor, single point]"},
      {"smiles": "Nc1cc(C(F)(F)F)ccc1Nc1ccccc1", "Potency": "inconclusive: 39.8 µM [inhibitor, partial curve, poor fit]"},
      {"smiles": "O=C(CSc1ccc2nnc(-c3ccccn3)n2n1)Nc1ccc2c(c1)OCO2", "Potency": "inconclusive: 31.6 µM [inhibitor, single point]"},
      {"smiles": "COc1ccc(N2CCN(C(c3cc(OC)ccc3OC)c3nnnn3Cc3ccco3)CC2)cc1", "note": "(configuration not stated)", "Potency": "inactive"},
      {"smiles": "CCCCN1C(=O)/C(=C2\\SC(N3CCCCC3)=NC2=O)c2ccccc21", "Potency": "inconclusive: 14.1 µM [inhibitor, partial curve]"},
      {"smiles": "CN1CCc2c(sc(/N=C/c3cc(Cl)ccc3O)c2C#N)C1", "Potency": "inconclusive: 31.6 µM [inhibitor, single point]"},
      {"smiles": "O=C(N/N=C1\\CCCc2ccccc21)c1ccc([N+](=O)[O-])cc1Cl", "Potency": "inconclusive: 5.62 µM [inhibitor, single point]"},
      {"smiles": "Cc1c(C(=O)NN2CCOCC2)oc2ccccc12", "Potency": "inconclusive: 7.08 µM [inhibitor, single point]"},
      {"smiles": "Cc1ccc(C(=O)O/N=C(\\N)c2nonc2N)cc1", "Potency": "inconclusive: 10 µM [inhibitor, partial curve]"},
      {"smiles": "CCCCC1C(=O)N(c2ccccc2)N(c2ccc(O)cc2)C1=O", "note": "(configuration not stated)", "Potency": "inactive"},
      {"smiles": "Cc1c(Cl)cccc1N=Cc1ccc([N+](=O)[O-])s1", "Potency": "inconclusive: 11.2 µM [inhibitor, partial curve]"},
      {"smiles": "N#C/C(=N\\Nc1ccc(S(=O)(=O)N2CCc3ccccc32)cc1)C(N)=S", "Potency": "inactive"},
      {"smiles": "COc1ccccc1C1CC(=O)Oc2cc(C)c(Cl)cc21", "note": "(configuration not stated)", "Potency": "inconclusive: 39.8 µM [inhibitor, single point]"},
      {"smiles": "COc1ccc(Cl)cc1C(=O)Nc1ccccc1N1CCN(C)CC1", "Potency": "inconclusive: 39.8 µM [inhibitor, single point]"},
      {"smiles": "Cc1cc(C)c(C)c(S(=O)(=O)N2CCN(c3ccc(O)cc3)CC2)c1C", "Potency": "inconclusive: 7.08 µM [inhibitor, partial curve]"},
      {"smiles": "CC(C)N(C(=O)CO/N=C/c1cccc([N+](=O)[O-])c1)C(C)C", "Potency": "inconclusive: 44.7 µM [inhibitor, partial curve, poor fit]"},
      {"smiles": "COc1ccc(/C=C/C(=O)O)cc1S(=O)(=O)NCc1cccnc1", "Potency": "inconclusive: 35.5 µM [inhibitor, single point]"},
      {"smiles": "CCOc1cccc(=O)c2c(C)n(CC(=O)c3ccccc3)c(C)c12", "Potency": "inconclusive: 28.2 µM [inhibitor, partial curve]"},
      {"smiles": "COc1cc2c(cc1OC)C(c1cccc(C)c1)CC(=O)N2", "note": "(configuration not stated)", "Potency": "inconclusive: 0.631 µM [inhibitor, full curve, poor fit]"},
      {"smiles": "CCc1cc[n+](C2=C([O-])c3ccccc3C(=O)/C2=N\\S(=O)(=O)c2cccs2)cc1", "Potency": "inconclusive: 25.1 µM [inhibitor, single point]"},
      {"smiles": "Cc1cccc(-c2cc(N)n(-c3ccccc3)n2)c1", "Potency": "inconclusive: 0.1 µM [inhibitor, full curve, poor fit]"},
      {"smiles": "NCC(=O)Nc1ccc(Cl)cc1C(=O)c1ccc[nH]1", "Potency": "inconclusive: 31.6 µM [inhibitor, single point]"},
      {"smiles": "C[C@@H]1O[C@@H](OC2C(O)C(OCCc3ccc(O)c(O)c3)OC(CO)C2OC(=O)/C=C/c2ccc(O)c(O)c2)[C@H](O)[C@H](O)[C@H]1O", "note": "(some centres not stated)", "Potency": "inconclusive: 31.6 µM [inhibitor, single point]"},
      {"smiles": "Cc1ccc(-c2csc(NC(=O)CSc3nnc4c(n3)[nH]c3ccccc34)n2)cc1", "Potency": "inactive"},
      {"smiles": "COc1cc2nc(N3CCN(C(=O)C4COc5ccccc5O4)CC3)nc(N)c2cc1OC", "note": "(configuration not stated)", "Potency": "inactive"},
      {"smiles": "COc1ccc(C2=NS(=O)(=O)N(C)C(C(=O)Nc3ccc4c(c3)OCO4)=C2)cc1OC", "Potency": "inconclusive: 20 µM [inhibitor, partial curve]"},
      {"smiles": "COc1ccccc1Nc1cc(C)nc2c(C)ccc([N+](=O)[O-])c12", "Potency": "inconclusive: 31.6 µM [inhibitor, single point]"},
      {"smiles": "NNC(=O)c1nc[nH]c1C(=O)Nc1ccccc1[N+](=O)[O-]", "Potency": "inconclusive: 25.1 µM [inhibitor, partial curve, poor fit]"},
      {"smiles": "O=C(O)CC(CP(=O)(c1ccccc1)c1ccccc1)C(=O)O", "note": "(configuration not stated)", "Potency": "inactive"},
      {"smiles": "Nc1ccccc1C(=O)N=Nc1[nH]c(N)c2ccccc12", "Potency": "inconclusive: 28.2 µM [inhibitor, single point]"},
      {"smiles": "Cc1cc(C(=O)Nc2nc3ccc(Cl)cc3s2)nn1C", "Potency": "inactive"},
      {"smiles": "O=C(COC(=O)c1ccc(S(=O)(=O)NCc2ccco2)cc1)Nc1ccc(Cl)cn1", "Potency": "inconclusive: 31.6 µM [inhibitor, single point]"},
      {"smiles": "CC(=O)Nc1nc(-c2ccccc2)ns1", "Potency": "inconclusive: 4.47 µM [inhibitor, single point]"},
      {"smiles": "O=C(Nn1c(-c2ccccc2)nc2ccccc2c1=O)c1ccco1", "Potency": "inactive"},
      {"smiles": "Cn1cccc1Cc1nnc(SCC(=O)Nc2ccc(F)cc2)n1-c1ccc(F)cc1", "Potency": "inconclusive: 39.8 µM [inhibitor, single point]"},
      {"smiles": "Oc1ccc(CN2CCN(c3ccccc3)CC2)c2cccnc12", "Potency": "inactive"},
      {"smiles": "COc1ccccc1N1C(=O)[C@@H]2[C@H](C1=O)[C@H](C(=O)c1ccc(OC(C)=O)cc1)N1N=CC=C[C@@H]21", "Potency": "inactive"},
      {"smiles": "Cc1c(O)cc2c(c1O)C(=O)CC(c1ccc(O)cc1)O2", "note": "(configuration not stated)", "Potency": "active: 3.98 µM"},
      {"smiles": "COc1ccc(NC(=O)C(=O)N2N=C3CCCCC3C2(O)C(F)(F)F)cc1", "note": "(configuration not stated)", "Potency": "inconclusive: 39.8 µM [inhibitor, partial curve]"},
      {"smiles": "COc1ccccc1NC(=O)CSc1ccc2nnc(-c3ccccn3)n2n1", "Potency": "inconclusive: 35.5 µM [inhibitor, single point]"},
      {"smiles": "Cn1cc(Br)c(-c2cccc(NC(=O)CCCC(=O)O)c2)n1", "Potency": "inconclusive: 8.91 µM [inhibitor, partial curve]"},
      {"smiles": "CCCCCOc1ccc(NC(=O)CSc2cccc3cccnc23)cc1", "Potency": "inactive"},
      {"smiles": "C[C@@]12CC[C@H]3OC(=O)C=C3C1CC[C@@]13CC(CCC12)[C@](CO)(O[C@H]1O[C@H](CO)[C@@H](O)[C@H](O)[C@H]1O)C3", "note": "(some centres not stated)", "Potency": "inactive"},
      {"smiles": "CC(C)(C)NC(=O)C(c1ccncc1)N(C(=O)Cn1nnc(-c2ccc(F)cc2)n1)c1ccccc1", "note": "(configuration not stated)", "Potency": "inconclusive: 28.2 µM [inhibitor, partial curve]"},
      {"smiles": "O=[N+]([O-])c1ccc(-c2c[nH]c(=S)[nH]2)cc1", "Potency": "inconclusive: 8.91 µM [inhibitor, single point]"},
      {"smiles": "CNC(=O)COC(=O)/C=C/c1ccco1", "Potency": "inconclusive: 25.1 µM [inhibitor, partial curve, poor fit]"},
      {"smiles": "Cc1nn(-c2ccccc2)c(Cl)c1/C=N/Nc1ccc(S(=O)(=O)Nc2ccccc2C(=O)O)cc1[N+](=O)[O-]", "Potency": "inconclusive: 35.5 µM [inhibitor, single point]"},
      {"smiles": "O=C(CSc1nnnn1Cc1ccccc1)Nc1ccc2c(c1)OCO2", "Potency": "inconclusive: 22.4 µM [inhibitor, partial curve]"},
      {"smiles": "O=C(Nc1ccc(N2CCCC2)c(Cl)c1)c1cccnc1", "Potency": "inconclusive: 6.31 µM [inhibitor, single point]"},
      {"smiles": "Clc1ccc(OCc2nc(-c3ccccn3)n[nH]2)cc1", "Potency": "inconclusive: 28.2 µM [inhibitor, single point]"},
      {"smiles": "COc1ccccc1/C(O)=C(\\C#N)c1nc2ccccc2[nH]1", "Potency": "inconclusive: 22.4 µM [inhibitor, partial curve, poor fit]"},
      {"smiles": "CC(C)C(=O)NC(c1cccs1)c1cc([N+](=O)[O-])c2cccnc2c1O", "note": "(configuration not stated)", "Potency": "active: 10 µM"}
    ]}
  ]
}
